{"source": "the supplement of paper PMC11417369", "note": "± gives the standard deviation of the averaged measurements. The list shows a part of the results.", "data": [{"tested_on": "PfAP2-I AP2 domain 3 (GST-tagged)", "experiment": "gcPBM binding intensity (ln(normalized median fluorescence intensity)); higher = stronger DNA binding", "method_in_brief": "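GST-fused DNA-binding domains of P. falciparum, expressed in E. coli, were applied at about 25 μg on average for 1 h to an Agilent 4 × 180k array of primer-extended double-stranded 36-bp intergenic genomic probes and negative controls. Binding intensity is the highest Masliner-normalised natural-log median intensity across replicate spots of either probe orientation, measured with Alexa488 anti-GST antibody and a 488 nm scan.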", "values": [{"sequence": "AATGACTAAATTTAAACACACAAGGGGAGTTTACTT [CACACA_site918]", "gcPBM binding intensity (ln)": "7.51 ± 0.86"}, {"sequence": "TATTATTGTTGTTCATGTACACACTATAATAAAAGC [XGTACX_site8957]", "gcPBM binding intensity (ln)": "8.16 ± 0.24"}, {"sequence": "AATAAATAAGCACATACACACATACATACATACATA [CACACA_site6075]", "gcPBM binding intensity (ln)": "8.49 ± 0.27"}, {"sequence": "TTGTATTTTTAAATGACACACACATATATATATATA [CACACA_site8481]", "gcPBM binding intensity (ln)": "9.32 ± 0.41"}, {"sequence": "AAGTTATAAAAATAAAGTACAAAGTAGCTATTTTTT [XGTACX_site3144]", "gcPBM binding intensity (ln)": "7.62 ± 0.45"}, {"sequence": "GACTTTTCATTTATAGTGCAAGTTTTTTTTTTTTTT [GTGCAC_site9698]", "gcPBM binding intensity (ln)": "9.69 ± 0.28"}, {"sequence": "ATAAATATAAAAAAATGTACATATAGTAATACATAC [XGTACX_site508]", "gcPBM binding intensity (ln)": "7.62 ± 0.52"}, {"sequence": "GAAATAAAAAGAAATGCATGTAATTTTTTTTTTTTT [TGCATGCA_site928]", "gcPBM binding intensity (ln)": "7.61 ± 0.83"}, {"sequence": "ATAAGTATAAGAATCAGTACACAGTTTCTACATACT [XGTACX_site5834]", "gcPBM binding intensity (ln)": "7.56 ± 0.51"}, {"sequence": "TATATATCATTTAAAACACACAAAAAAAAAAGTTAT [CACACA_site6191]", "gcPBM binding intensity (ln)": "7.85 ± 0.55"}, {"sequence": "TTATTTGTATCCATTTCACACATTTTATATAGTATC [CACACA_site5989]", "gcPBM binding intensity (ln)": "7.97 ± 0.77"}, {"sequence": "TTTTTTGTTATGCGGGTGCATATAATAATGTGATGA", "gcPBM binding intensity (ln)": "10.9 ± 0.89"}, {"sequence": "TTTATCAAAAAAAAAAAAAAAAAAAAAAAAAATTGT [CACACA_negctrl_site176]", "gcPBM binding intensity (ln)": "7.49 ± 0.69"}, {"sequence": "TTATGTGCTTTAAAAGTGCATTTTTTTTTTTTTTTT", "gcPBM binding intensity (ln)": "10.6 ± 0.19"}, {"sequence": "TATATGTTTTATAAATGTACATATACTTAAATATTT [XGTACX_site4753]", "gcPBM binding intensity (ln)": "7.71 ± 0.28"}, {"sequence": "ACTATTAAGAATAAAGAAATATGTAATTGTATTTAA [CACACA_negctrl_site516]", "gcPBM binding intensity (ln)": "7.43 ± 0.59"}, {"sequence": "AATACATAATAACGTTGTACAAAAATTATAATACAT [XGTACX_site6508]", "gcPBM binding intensity (ln)": "8.14 ± 0.54"}, {"sequence": "TATAAATAAATGTGTACACACATTAAAATCAAACGT [CACACA_site2340]", "gcPBM binding intensity (ln)": "8.32 ± 0.042"}, {"sequence": "TTTTTTTTTTTTTTTACACACAAATGTATACTATAT [CACACA_site1787]", "gcPBM binding intensity (ln)": "8.21 ± 0.49"}, {"sequence": "TATTAAATATTCATATGTACATATAGTTTATAAATT [XGTACX_site7455]", "gcPBM binding intensity (ln)": "7.88 ± 0.29"}, {"sequence": "ATATATGTATGTTAGACACACATATTATAATATGTT [CACACA_site116]", "gcPBM binding intensity (ln)": "7.61 ± 0.57"}, {"sequence": "AAAACGGATTCTTTATAAATAAATAAATAAATATAA [XGTACX_negctrl_site157]", "gcPBM binding intensity (ln)": "7.52 ± 0.42"}, {"sequence": "AATACATACACAAATACACACACAAATACATACACA [CACACA_site8134]", "gcPBM binding intensity (ln)": "7.96 ± 0.3"}, {"sequence": "GGACTTAAATAAAATGGTACAGAATTTATATATATT [XGTACX_site8214]", "gcPBM binding intensity (ln)": "7.63 ± 0.51"}, {"sequence": "TAATGGAATACATATAGTACATAATATTACATACAT [XGTACX_site5737]", "gcPBM binding intensity (ln)": "7.65 ± 0.48"}, {"sequence": "TTTTAAAAATTAAAAAAATTAAATGTAAAAAAATGA [CACACA_negctrl_site861]", "gcPBM binding intensity (ln)": "7.55 ± 0.69"}, {"sequence": "ATATATGTATATGTGTGTACATATATGTTTATTATT [XGTACX_site6043]", "gcPBM binding intensity (ln)": "7.78 ± 0.42"}, {"sequence": "TTTTTTTTTTTTTATTGTACTAGTAGATATATATAC [XGTACX_site3463]", "gcPBM binding intensity (ln)": "8.08 ± 0.71"}, {"sequence": "CCAATATATACATATATATAGTTATATATATTTCCT [TGCATGCA_negctrl_site38]", "gcPBM binding intensity (ln)": "7.42 ± 0.36"}, {"sequence": "GTGTCAAATTTTATAACACACAAAAGATTATATAAG [CACACA_site4086]", "gcPBM binding intensity (ln)": "7.76 ± 0.48"}, {"sequence": "TCCTCGCGTAATACTTTTCAAATAAAAAAAATAAAA [TGCATGCA_negctrl_site403]", "gcPBM binding intensity (ln)": "7.82 ± 0.22"}, {"sequence": "ATTAAAAATTAATATAAACACACAAAAATTAATAAA [CACACA_site8019]", "gcPBM binding intensity (ln)": "7.64 ± 0.68"}, {"sequence": "AAACATACTTGATGCAGTACACATTATAAGCACATA [XGTACX_site3359]", "gcPBM binding intensity (ln)": "9.19 ± 0.2"}, {"sequence": "CATATGTATATGACTACACACAAGGGTGTACAGATA [CACACA_site4776]", "gcPBM binding intensity (ln)": "8.05 ± 0.26"}, {"sequence": "TATTATTCTGTATTTGCATGTGATCATATATATGTA [TGCATGCA_site1053]", "gcPBM binding intensity (ln)": "7.76 ± 0.6"}, {"sequence": "TATATAACATAATATACACACATTATGTGCGTAATT [CACACA_site4073]", "gcPBM binding intensity (ln)": "8.91 ± 0.23"}, {"sequence": "GTATATCATTTTGGGGTGCTTAAAAATAATGAATAC", "gcPBM binding intensity (ln)": "10.4 ± 0.46"}, {"sequence": "TTTTTTTTTTTTTATTGTACAAAGGTATAAAATAAT [XGTACX_site2396]", "gcPBM binding intensity (ln)": "8.07 ± 0.45"}, {"sequence": "CATACATACAGACACACACACATATATATATATATA [CACACA_site2920]", "gcPBM binding intensity (ln)": "9.41 ± 0.54"}, {"sequence": "AACATAAAAATGAACATACACACATATATATATATA [CACACA_site2497]", "gcPBM binding intensity (ln)": "9.35 ± 0.32"}, {"sequence": "ATAAAAATACAGTTAACACACATGTGGATATATATG [CACACA_site3771]", "gcPBM binding intensity (ln)": "8.13 ± 0.46"}, {"sequence": "AAACAAAAAAGTAAGAAAAGGGATGATTGGATCCAA [CACACA_negctrl_site1230]", "gcPBM binding intensity (ln)": "7.35 ± 0.78"}, {"sequence": "AGATATTATAATTAATGTACAAAAAGAAAAAATAGA [XGTACX_site8964]", "gcPBM binding intensity (ln)": "7.86 ± 0.64"}, {"sequence": "GTATTATCTTTTAATAGTACATATTTTTTTGAAACA [XGTACX_site4050]", "gcPBM binding intensity (ln)": "7.61 ± 0.54"}]}]}
